Experimental data reported in PubChem BioAssay AID1347073 (National Center for Advancing Translational Sciences (NCATS), 2019).
Hit rate of the full screen: of about 45,000 compounds, about 200 (0.44%) were called active. Roughly 7% stayed inconclusive and do not appear here. Calls follow the shape of the dose curve; as a rule, active = well fitted activation curve with a large enough effect; inconclusive = small, poorly fitted or top-dose-only effect; inactive = no such curve, though single readings can be large or run the other way. The list shows a part of the results.

assay: qHTS of TDP-43 Inhibitors: NCGC Sytravon Library Screen; details: yeast TDP-43 toxicity rescue, BacTiter-Glo growth, 24 h; series mostly up to 46.1 µM; growth rescue (activation): at the top concentration; also: 0% is about no effect; nearly all actives have a fitted effect of over 55% in size
How it was run: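 TDP-43-expressing yeast, pregrown in raffinose, seeded at OD600 0.02 in galactose medium with compound for 24 hr at 30 deg C. Growth read by BacTiter-Glo luminescence, so rescue of toxicity appears as activation.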

Row | Compound | growth rescue (activation)
1 | Cc1ccsc1C(=O)OCc1nnc(-c2ccccc2)o1 | inactive: -3.73%
2 | O=S(=O)(c1ccc(Br)cc1)N1CCCN(Cc2cccc(F)c2)CC1 | inactive: -19.3%
3 | O=C(Nc1nnc([C@@H]2C[C@H](O)[C@@H](CO)O2)s1)Nc1ccccc1F | inactive: 0.846%
4 | COC(=O)c1ccc(CNC(=O)COC(=O)CC23CC4CC(CC(Br)(C4)C2)C3)cc1 | inactive: 9.14%
5 | CC1=C(c2ccc(C)cc2)[N+](=O)C(C)(C)N1[O-] | inactive: 1.28%
6 | Cc1c(NC(=O)c2csc3c2CCCC3)c(=O)n(-c2ccccc2)n1C | inactive: -2.42%
7 | Cc1cccc(C(O)c2ncc(-c3ccccc3)[nH]2)c1C (stereo unspecified) | inactive: 0.291%
8 | CC(C)NS(=O)(=O)c1ccc(OCC(=O)N2CCN(c3ccccc3)CC2)cc1 | inactive: 9.54%
9 | Cc1ccc(S(=O)(=O)N2CCN(C(=O)CN3CCOCC3)C2)cc1 | inactive: 21.6%
10 | O=C(C1COc2ccccc2O1)N1CCN(Cc2ccc3c(c2)OCO3)CC1 (stereo unspecified) | inactive: -9.37%
11 | OC(c1ccccc1)C(CN1CCOCC1)c1ccccc1 (stereo unspecified) | inactive: 22.2%
12 | Cn1ncc([N+](=O)[O-])c1C(=O)Nc1nc2ccccc2n1CCN1CCCCC1 | inactive: 12.6%
13 | O=c1c2ccccc2nc2n1CC/C2=C\N1CCN(c2ccc([N+](=O)[O-])cc2)CC1 | inactive: -1.21%
14 | COc1ccc(S(=O)(=O)NCc2cccnc2)c2ccccc12 | inactive: 1.22%
15 | CCN(CC)S(=O)(=O)c1ccc(Cl)c(NC2=NCCCCC2)c1 | inactive: 9.88%
16 | CC(=O)NC(Cc1ccccc1)C(=O)OCC(=O)c1ccc(Br)cc1 (stereo unspecified) | inactive: 6.53%
17 | O=C(CCC1CCCC1)Nc1nnc(-c2ccc3c(c2)OCO3)s1 | inactive: 8.38%
18 | COC(=O)c1ccc(NC(=O)COC(=O)C2CC(=O)N(Cc3ccccc3)C2)cc1 (stereo unspecified) | inactive: -6.09%
19 | O=C(COC(=O)c1ccc(O)cc1)Nc1ccc(OC(F)F)cc1 | inactive: -2.57%
20 | CS(=O)(=O)N(Cc1ccc(C(=O)N2CCc3ccccc3C2)cc1)c1ccccc1 | inactive: -0.459%
21 | O=C(Nc1ccc(C(=O)O)cc1)/C(=C\c1ccccc1)NC(=O)c1ccco1 | inactive: 8.39%
22 | CCCCNCCOCCOc1ccc(F)cc1 | inactive: -3.39%

Row | Compound | growth rescue (activation)
23 | CCc1nc2ccc(C(=O)NCCCn3ccnc3)cn2c1N(CC)C(=O)NCCc1ccccc1 | inactive: -1.31%
24 | O=C(Nc1ccn(Cc2ccccc2)n1)c1cccc(F)c1 | inactive: 26%
25 | COc1ccc(N(CC(=O)Nc2ccc3c(c2)OCO3)S(=O)(=O)c2ccc(C)cc2)cc1OC | inactive: 19.5%
26 | COc1ccc(C(=O)NNC(=O)CSc2nnc3ccccn23)cc1OC | inactive: -5.48%
27 | COc1cc2c(cc1N/C=C(\C#N)c1nc(-c3ccc(F)cc3)cs1)oc1ccccc12 | inactive: -7.16%
28 | COC(=O)c1cc(NS(=O)(=O)c2ccc(NCc3cccnc3)c(N)c2)cc(C(=O)OC)c1 | inactive: 2.42%
29 | CCOc1ccc(OCCCCn2cnc3ccccc3c2=O)cc1 | inactive: 26.6%
30 | O=C(NNC(=O)C1CCC(C(=O)NNC(=O)c2cccs2)CC1)c1cccs1 (stereo unspecified) | inactive: -6.42%
31 | Cc1nc2ccc(C(=O)N(C)Cc3ccccc3)cn2c1N(C)C(=O)CCc1ccccc1 | inactive: -7.9%
32 | CCC(=O)Nc1ccc2nc(SCc3ccccc3)sc2c1 | inactive: 26.3%
33 | CSc1ccccc1C(=O)C1CCCN(S(=O)(=O)N(C)C)C1 (stereo unspecified) | inactive: 16%
34 | COc1ccccc1CNC(=O)Cc1ccc(OC)c(OC)c1 | inactive: 0.8%
35 | CC(=O)Nc1ccc2oc(C)nc2c1 | inactive: 5.23%
36 | Cc1ccc(-c2cc(C(F)F)n3ncc(C(=O)N4CCCCC4c4cccnc4)c3n2)cc1 (stereo unspecified) | inactive: 1.87%
37 | COc1ccc(-c2csc(C(C#N)=C(O)CSc3nccn3C)n2)cc1OC | inactive: -14.4%
38 | Cc1cc(NC(=O)CCC(=O)N(CC(=O)NCC2CCCO2)c2ccc(F)c(Cl)c2)no1 (stereo unspecified) | inactive: 3.79%
39 | O=C(O)c1ccccc1NS(=O)(=O)c1cccc(-n2sc3ccccc3c2=O)c1 | inactive: -1.7%
40 | Cc1ccc(C(=O)N/N=C\c2cc3c(cc2Br)OCO3)cn1 | inactive: 1.84%
41 | CC(C)C(C(=O)NC1CCCC1)N(CC1CCCO1)C(=O)CNS(=O)(=O)c1ccccc1 (stereo unspecified) | inactive: -5.07%
42 | COc1cc(CN(C)Cc2cc(=O)oc3cc(C)c(Cl)cc23)ccc1OC(F)F | inactive: 23.2%
43 | Cc1ccc2cc(CN(C(=O)c3cccs3)c3ccccc3)c(=O)[nH]c2c1 | inactive: 0.577%
44 | O=S(=O)(c1cc(C(F)(F)F)ccc1Cl)N1CCN(c2ncnc3ccccc23)CC1 | inactive: 12.8%

Row | Compound | growth rescue (activation)
45 | O=C(COC(=O)c1ccc[n+]([O-])c1)Nc1cc([N+](=O)[O-])ccc1Cl | inactive: 10.1%
46 | O=C(COC(=O)CNC(=O)C1CCCCC1)Nc1ccccc1 | inactive: -6.65%
47 | Cc1ccc(C)n1-c1ccc(C(=O)NCc2ccncc2)cc1 | inactive: -13.8%
48 | NS(=O)(=O)c1ccc(NC(=O)COC(=O)c2cnc(Cl)c(Cl)c2)cc1 | inactive: 22.7%
49 | CCOC(=O)NC1(C(F)(F)F)NC(=O)N(c2cccc(C(F)(F)F)c2)C1=O (stereo unspecified) | inactive: 6.46%
50 | C=CC[n+]1c(-c2ccc(Cl)cc2Cl)csc1Nc1c(C)n(C)n(-c2ccccc2)c1=O | inactive: -10.6%
51 | CCC(=O)N(C)CCc1cc2c(c(OC)c1/C=N/NS(=O)(=O)c1ccc(C)cc1)OCO2 | inactive: 19.7%
52 | CCC1CCCCN1C(=O)c1cccc(S(=O)(=O)Nc2cc(C(F)(F)F)ccc2Cl)c1 (stereo unspecified) | inactive: 1.99%
53 | O=C(O)C1CCCN(S(=O)(=O)c2ccc(F)cc2)C1 (stereo unspecified) | inactive: -24.5%
54 | Cc1ccc(F)cc1C(=O)N1CCOCC1c1cc(C(=O)Nc2ccccc2)no1 (stereo unspecified) | inactive: 17.7%
55 | COc1ccc(OC)c(C(=O)COC(=O)c2[nH]c(C)c(C(C)=O)c2C)c1 | inactive: 24.9%
56 | Cc1ccc(S(=O)(=O)NCC(=O)OCc2ccccc2)cc1 | inactive: 18.9%
57 | N#Cc1cccc(NC(=O)Cc2ccccc2)c1 | inactive: 27.9%
58 | COc1cccc(C(CNc2ccc(S(=O)(=O)N3CCN(C)CC3)cc2[N+](=O)[O-])N(C)C)c1 (stereo unspecified) | inactive: 7.12%
59 | CC1CN(C(=O)CCC(=O)NCCCN2CCC(Cc3ccccc3)CC2)c2cc(Cl)ccc2O1 (stereo unspecified) | inactive: -10.9%
60 | COc1cc(CNn2cn[nH]c2=S)ccc1OCC(=O)NC(C)(C)C | inactive: -0.189%
61 | COc1ccc(CN2CCN(Cc3csc(C(C)=O)c3)CC2CCO)c(C)c1C (stereo unspecified) | inactive: 13.3%
62 | CCN(c1ccccc1)S(=O)(=O)c1cc(C(=O)NCc2ccccn2)ccc1C | inactive: 12.6%
63 | CCN(CC)S(=O)(=O)c1ccc(/C=C/C(=O)OCC#N)cc1 | inactive: 13.7%
64 | Cc1cccc(OCCOc2ccccc2C=C(C#N)C#N)c1 | inactive: -30.7%
65 | COc1ccc(/C=C2/C(=O)OCc3cc(OC)c(OC)cc32)cc1 | inactive: 33.2%
66 | CC(=O)Nc1ccccc1OCC(=O)NCCc1ccc(Cl)cc1Cl | inactive: 7.13%
